Measured values taken from paper PMC8034648, “Oligomeric complexes formed by Redβ single strand annealing protein in its different DNA bound states”.

How the values were obtained:
[1] = molecular target: Redβ single strand annealing protein from bacteriophage λ (bacteriophage λ) (UniProt P03698); assay: AUC; sedimentation velocity, Redβ with dT38 ssDNA, complex purified by gel filtration; PBS, 20°C, 20 000 rpm; 8.3, 16.6 and 34 μM; A280 and FI optics; c(s) model (Table 2) and g(s*) model; n assumes one copy of dT38
[2] = molecular target: Redβ single strand annealing protein from bacteriophage λ (bacteriophage λ) (UniProt P03698); assay: AUC; sedimentation velocity, Redβ with dT38:dA38 annealed duplex, complex purified by gel filtration; PBS, 20°C, 20 000 rpm; 8.3, 16.6 and 34 μM; A280 and FI optics; c(s) model (Table 2) and g(s*) model; n assumes one copy of dT38:dA38

Redβ single strand annealing protein from bacteriophage λ (from UniProt P03698 1-261) (natural protein)
stoichiometry N ([1]; 8.3 μM, A280 optics): 12.5 subunits | stoichiometry N ([1]; 8.3 μM, FI optics): 12.4 subunits | stoichiometry N ([1]; 16.6 μM, A280 optics): 12 subunits | stoichiometry N ([1]; 16.6 μM, FI optics): 14.2 subunits | stoichiometry N ([1]; 34 μM, A280 optics): 13.1 subunits | stoichiometry N ([1]; 34 μM, FI optics): 15.5 subunits | stoichiometry N ([2]; 8.3 μM, A280 optics): 11.5 subunits | stoichiometry N ([2]; 8.3 μM, FI optics): 12.9 subunits | stoichiometry N ([2]; 16.6 μM, A280 optics): 12.3 subunits | stoichiometry N ([2]; 16.6 μM, FI optics): 14.1 subunits | stoichiometry N ([2]; 34 μM, A280 optics): 12.1 subunits | stoichiometry N ([2]; 34 μM, FI optics): 14.9 subunits

Some values that stand alone complete this part of the results.
